Laboratory results taken from the supplement of paper PMC10498489.
Among all 2,300 compounds or so, about 330 (14%) showed activity.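 How the source made its calls: active = median modified Z-score above 1.96; inactive = 1.96 or below.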 The list shows a part of the results, in another mix than the full data.

system: HepG2 Srxn1-GFP reporter cells (+30 nM CDDO-Me); assay: Srxn1-GFP intensity median modified Z-score relative to plate median; higher = stronger NRF2 / oxidative stress reporter activation, active = hit call of the paper; settings: 10 µM; exposure time: 24h
How it was run: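 Each value is the replicate median of a per-plate modified Z-score for GFP intensity in HepG2 Srxn1-GFP BAC reporter cells. The cells (20,000 per well, 96-well plates, three replicate plates) received compound at 10 μM together with an NRF2 activator at 30 nM for 24 h, in ≤0.1% DMSO. Cytoplasmic GFP was quantified per cell from confocal images of formaldehyde-fixed, Hoechst-stained cells, leaving out images with fewer than 100 cells, and scaling used 1.4826 × median absolute deviation.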

| Compound | Srxn1-GFP intensity median modified Z-score |
| --- | --- |
| C=C1CC[C@H](O)C/C1=C/C=C1\CCC[C@]2(C)C([C@H](C)/C=C/[C@H](C)C(C)C)CC[C@@H]12 (some centres not stated) [euspeclibcmpd112] | active: 2.55 |
| Cc1c(C)c2c(c(C)c1O)CCC(C)(CCCC(C)CCCC(C)CCCC(C)C)O2 (configuration not stated) [euspeclibcmpd449] | inactive: -0.0554 |
| CCCC(=O)Nc1ccc(OCC(O)CNC(C)C)c(C(C)=O)c1 (configuration not stated) [euspeclibcmpd329] | inactive: -0.442 |
| N[C@@H](CC(=O)N1CCn2c(nnc2C(F)(F)F)C1)Cc1cc(F)c(F)cc1F [euspeclibcmpd2166] | active: 12.2 |
| COc1cc2c(cc1OC)Cc1cc(OC)c(OC)cc1Cc1cc(OC)c(OC)cc1C2 [euspeclibcmpd1674] | inactive: -0.175 |
| CC(=O)O[C@H]1CC[C@@]2(C)C(C[C@@H](OC(C)=O)[C@]3(C)C2CC[C@@]2(C)[C@H](c4ccoc4)OC(=O)C4O[C@]423)C1(C)C (some centres not stated) [euspeclibcmpd2319] | active: 5.12 |
| Cc1oc(=O)oc1CN1CCN(c2cc3c(cc2F)c(=O)c(C(=O)O)c2n3C(C)S2)CC1 (configuration not stated) [euspeclibcmpd805] | inactive: -0.455 |
| C=COCC(F)(F)F [euspeclibcmpd927] | inactive: -0.291 |
| O=C(O)Cc1cc(I)c(Oc2ccc(O)c(I)c2)c(I)c1 [euspeclibcmpd1243] | active: 8.98 |
| CC(CCC(=O)O)[C@H]1CCC2C3CC[C@@H]4CCCC[C@]4(C)C3CC[C@@]21C (some centres not stated) [euspeclibcmpd1329] | inactive: 1.64 |
| COCCCOc1ccnc(C[S+]([O-])c2nc3ccccc3[nH]2)c1C (configuration not stated) [euspeclibcmpd2062] | inactive: -0.00915 |
| COc1cc(C(C)=O)cc(OC)c1O [euspeclibcmpd1999] | inactive: -0.452 |
| O=C(CCCCC(=O)Nc1c(I)cc(I)c(C(=O)O)c1I)Nc1c(I)cc(I)c(C(=O)O)c1I [euspeclibcmpd344] | inactive: -0.528 |
| CNCC[C@@H](Oc1ccccc1C)c1ccccc1 [euspeclibcmpd762] | inactive: -0.064 |
| Cc1ccc(C(=O)C(C)CN2CCCCC2)cc1 (configuration not stated) [euspeclibcmpd1067] | inactive: 1.18 |
| S=c1[nH]cnc2[nH]cnc12 [euspeclibcmpd183] | active: 59.5 |
| N=C(N)SCCN [euspeclibcmpd1761] | active: 3.8 |
| N=C(N)N1CCc2ccccc2C1 [euspeclibcmpd956] | inactive: -0.37 |
| COc1ccc(-c2cc(=O)c3c(O)c(OC)c(OC)c(OC)c3o2)cc1OC [euspeclibcmpd1564] | inactive: -0.0509 |

| Compound | Srxn1-GFP intensity median modified Z-score |
| --- | --- |
| CCCc1nc2c(C)cc(-c3nc4ccccc4n3C)cc2n1Cc1ccc(-c2ccccc2C(=O)O)cc1 [euspeclibcmpd729] | active: 3.15 |
| CC(C[N+](C)(C)C)OC(N)=O (configuration not stated) [euspeclibcmpd37] | inactive: -0.0117 |
| CN(C)CCN(Cc1ccc(Cl)cc1)c1ccccn1 [euspeclibcmpd1219] | inactive: -0.833 |
| Cc1onc(-c2c(Cl)cccc2Cl)c1C(=O)NC1C(=O)N2C1SC(C)(C)C2C(=O)O (configuration not stated) [euspeclibcmpd2174] | inactive: -0.262 |
| Cc1c(NC(C)C)c(=O)n(-c2ccccc2)n1C [euspeclibcmpd1149] | inactive: 0.683 |
| C=CCOC(=O)C1=C(C)NC(C)=C(C(=O)OCC=C)C1/C=C/c1ccccc1 | active: 4.92 |
| COc1c(O)c(C)c(C=CC(C)=CCC=C(C)CCC=C(C)CCC=C(C)CCC=C(C)CCC=C(C)CCC=C(C)CCC=C(C)CCC=C(C)CCC=C(C)C)c(O)c1OC [euspeclibcmpd1853] | inactive: -0.0742 |
| NCCS [euspeclibcmpd667] | inactive: 0.465 |
| c1ccc(C(c2ccccc2)(c2ccccc2)n2ccnc2)cc1 | inactive: 1.95 |
| O=C(CCCN1CCC(O)(c2ccc(Cl)cc2)CC1)c1ccc(F)cc1 [euspeclibcmpd145] | inactive: -0.792 |
| COc1cc(C=CC(=O)CC(=O)C=Cc2ccc(O)c(OC)c2)ccc1O [euspeclibcmpd1307] | active: 23.5 |
| COC(=O)c1c(C)c2c(c(C)c1O)OC(=O)c1c(C)c(Cl)c(O)c(Cl)c1O2 [euspeclibcmpd1600] | active: 12.9 |
| Cc1ccc(C)c(OCCCC(C)(C)C(=O)O)c1 [euspeclibcmpd138] | inactive: -0.449 |
| COc1c2ccoc2cc2oc(C)cc(=O)c12 [euspeclibcmpd1519] | inactive: 0.0755 |
| COc1ccc(CN(CCN(C)C)c2ncccn2)cc1 [euspeclibcmpd534] | inactive: -0.866 |
| NCC(=O)CCC(=O)O [euspeclibcmpd661] | inactive: 0.393 |
| CCCCCCCCNC(C)C(O)c1ccc(SC(C)C)cc1 (configuration not stated) [euspeclibcmpd406] | inactive: -0.258 |
| CC1=CC2C(CC1=O)C(C)=CCC2C(C)C (configuration not stated) [euspeclibcmpd1509] | inactive: -0.361 |
